Some of the results follow. The energies were worked out here from pooled read counts, against the library average; single values are noisy.
target: T1, Pho4 (S. cerevisiae) (UniProt P07270); experiment: relative binding free energy (BET-seq); higher = weaker binding; settings: reference: library average
T1 sequence: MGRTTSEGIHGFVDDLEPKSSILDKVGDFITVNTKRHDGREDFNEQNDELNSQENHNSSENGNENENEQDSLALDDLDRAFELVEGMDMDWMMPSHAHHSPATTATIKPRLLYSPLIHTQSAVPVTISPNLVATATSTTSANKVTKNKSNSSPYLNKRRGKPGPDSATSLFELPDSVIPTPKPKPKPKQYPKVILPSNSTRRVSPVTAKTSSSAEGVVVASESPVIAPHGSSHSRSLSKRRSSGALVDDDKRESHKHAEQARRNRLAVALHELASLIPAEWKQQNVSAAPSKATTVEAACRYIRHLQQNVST

Sequence | relative binding free energy
TAGGGCACGTGCGTCG | -0.22 kcal/mol
AATGTCACGTGTGATC | 0.3 kcal/mol
TGGTCCACGTGCTTGT | 0 kcal/mol
AGAGGCACGTGAATTA | 0.22 kcal/mol
TTTGACACGTGCGGTG | 0.06 kcal/mol
GCGGACACGTGGTAGT | -0.01 kcal/mol
CGGGTCACGTGTGTGC | 0.08 kcal/mol
GAGGTCACGTGTAATG | 0.45 kcal/mol
TAGGCCACGTGTGTGG | 0.09 kcal/mol
GCTGGCACGTGTGGAT | 0.01 kcal/mol
TGGTGCACGTGTCGCG | -0.01 kcal/mol
TTGGCCACGTGATGGC | 0.17 kcal/mol
GATGGCACGTGAAAGT | 0.21 kcal/mol
GTGCTCACGTGTGCGT | 0.13 kcal/mol
GTAGACACGTGGTGAG | -0.06 kcal/mol
TATGTCACGTGCGAGT | 0.04 kcal/mol
GTGGACACGTGTAGCA | 0.14 kcal/mol
TTACACACGTGTTTGG | 0.06 kcal/mol
GGGGGCACGTGGCGCA | -0.2 kcal/mol
TATTTCACGTGTGACT | 0.32 kcal/mol
GCTTTCACGTGAGGGT | 0.47 kcal/mol
TGGTTCACGTGGTTTG | 0.27 kcal/mol
AATATCACGTGGAGTA | 0.18 kcal/mol

Sequence | relative binding free energy
TTTTGCACGTGCGTGT | -0.05 kcal/mol
TGATGCACGTGCTTTG | -0.08 kcal/mol
GGGGACACGTGGTCAG | -0.07 kcal/mol
CGTTTCACGTGGTGCG | 0.23 kcal/mol
TGCGGCACGTGAGATT | 0.15 kcal/mol
CGATTCACGTGGTGCT | 0.26 kcal/mol
CTTTACACGTGAGGTG | 0.31 kcal/mol
ATAGGCACGTGCTGTG | -0.16 kcal/mol
GGGATCACGTGCGTTA | 0.04 kcal/mol
CTTTCCACGTGGATGT | 0.18 kcal/mol
GCAGACACGTGTGGTG | -0.06 kcal/mol
TCGCTCACGTGAGGTG | 0.49 kcal/mol
AGTTACACGTGGTTAT | 0.07 kcal/mol
TCTCACACGTGGGTGG | -0.03 kcal/mol
ATGGTCACGTGATGTT | 0.21 kcal/mol
AAATTCACGTGGTGTA | 0.23 kcal/mol
CGGGGCACGTGTGTAT | -0.16 kcal/mol
AGTAGCACGTGGAGCT | -0.08 kcal/mol
GGTGTCACGTGGTTGC | 0.13 kcal/mol
TTGAGCACGTGGTTGA | -0.06 kcal/mol
TTAAGCACGTGAGAGG | 0.15 kcal/mol
TGAATCACGTGTTGCG | 0.09 kcal/mol
TCTGGCACGTGAAGTG | 0.06 kcal/mol

Sequence | relative binding free energy
TAGTGCACGTGTGTCT | -0.01 kcal/mol
GAGTACACGTGGGAAT | 0.04 kcal/mol
TTCTTCACGTGTGAAG | 0.31 kcal/mol
TTGGTCACGTGTTTCA | 0.13 kcal/mol
CGCGGCACGTGGAAGG | -0.15 kcal/mol
TGATTCACGTGCGTTT | 0.26 kcal/mol
TGTTTCACGTGTCAGA | 0.38 kcal/mol
GGTATCACGTGTGGGC | 0.21 kcal/mol
TCCGGCACGTGGTGGT | -0.08 kcal/mol
GGGTTCACGTGTTGAC | 0.27 kcal/mol
GATGCCACGTGTGTTG | 0.01 kcal/mol
TGTAGCACGTGGTATT | -0.14 kcal/mol
TTTGACACGTGAATTT | 0.3 kcal/mol
GCGTTCACGTGCTGGT | 0.28 kcal/mol
CGGGTCACGTGCGTAA | 0.18 kcal/mol
CGGTCCACGTGAGGGT | 0.08 kcal/mol
TTGGGCACGTGAGGTT | 0.18 kcal/mol
TGGGGCACGTGCGTAA | -0.21 kcal/mol
AATAGCACGTGCGGGA | -0.04 kcal/mol
TTGATCACGTGCGTTA | -0.06 kcal/mol
GTGAGCACGTGTAATT | -0.01 kcal/mol
TTTCTCACGTGCTTGG | 0.14 kcal/mol
TGTGGCACGTGGGACT | -0.16 kcal/mol

Sequence | relative binding free energy
AGATTCACGTGTCGGT | 0.29 kcal/mol
TGGAACACGTGGGTAC | -0.07 kcal/mol
CGCTTCACGTGTATGG | 0.32 kcal/mol
GTCGTCACGTGAGTTG | 0.39 kcal/mol
AGTATCACGTGGGGGC | 0 kcal/mol
TGTAGCACGTGAAAAT | 0.24 kcal/mol
TAGTCCACGTGTTGGA | 0.01 kcal/mol
TGTCGCACGTGAGTGC | 0.25 kcal/mol
ATTCGCACGTGGAGGG | -0.13 kcal/mol
TGAGTCACGTGTAGGG | 0.04 kcal/mol
TTACTCACGTGTAGGG | 0.12 kcal/mol
TTCAGCACGTGCGTGG | -0.15 kcal/mol
TGGGACACGTGTCGAT | 0.09 kcal/mol
GGTGGCACGTGATCGA | -0.09 kcal/mol
ATTGGCACGTGTTTAT | 0 kcal/mol
GTATCCACGTGTGTAT | 0.11 kcal/mol
ATTTCCACGTGGTGTT | 0 kcal/mol
TAGTTCACGTGGACTA | 0.26 kcal/mol
TGTGCCACGTGTAAAT | 0.23 kcal/mol
GAATTCACGTGATGGA | 0.4 kcal/mol
TACTTCACGTGGGATT | 0.19 kcal/mol
AGTGGCACGTGGGGGA | -0.21 kcal/mol
ACTTTCACGTGATGCT | 0.37 kcal/mol

Sequence | relative binding free energy
TTATTCACGTGGTTTC | 0.31 kcal/mol
AATATCACGTGAAGGT | 0.36 kcal/mol
TGTTTCACGTGAGACA | 0.33 kcal/mol
TTGTGCACGTGACCGT | 0.05 kcal/mol
TTGAGCACGTGGACTG | -0.14 kcal/mol
GGTCTCACGTGTCGGT | 0.24 kcal/mol
GGGACCACGTGTGTGT | 0 kcal/mol
ATGTTCACGTGGGGGC | 0.13 kcal/mol
TAGATCACGTGTAGGG | 0.23 kcal/mol
AGTGTCACGTGGTACG | -0.01 kcal/mol
AATAGCACGTGAGCGG | 0.14 kcal/mol
ATTGGCACGTGGCTTT | -0.2 kcal/mol
TTTCTCACGTGATAGA | 0.36 kcal/mol
GGGAGCACGTGAGTTT | 0.25 kcal/mol
AAATCCACGTGAGGGT | 0.25 kcal/mol
TCATACACGTGTGGTA | -0.04 kcal/mol
TTAGACACGTGCGGCG | -0.03 kcal/mol
GTGGCCACGTGGGCTG | -0.17 kcal/mol
GTTAACACGTGTTATC | 0.16 kcal/mol
TTTCACACGTGGTGGT | 0.1 kcal/mol
GCATGCACGTGCGGGG | -0.07 kcal/mol
AAAATCACGTGGGTGG | 0.08 kcal/mol
GGGGACACGTGTAAGT | 0.14 kcal/mol
